From article PMC8454987 (PLoS Biology, 2021)

Biological target: the molecule itself
Assay: fluorescence intensity fluctuatio

B1: Full-length EphA2 wild type tagged with mTurquoise or eYFP, on HEK293T cells (receptor, human)
chain: [… about 500 residues …]IGGVAVGVVLLLVLAGVGFFIHRRRKNQRARQSPEDVYFSKSEQLKPLKTYVDPHTYEDPNQAVLKFTTEIHPSCVTRQKVIGAGEFGEVYKGMLKTSSGKKEVPVAIKTLKAGYTEKQRVDFLGEAGIMGQFSHHNIIRLEGVISKYKPMMIITEYMENGALDKFLREKDGEFSVLQLVGMLRGIAAGMKYLANMNYVHRDLAARNILVNSNLVCKVSDFGLSRVLEDDPEATYTTSGGKIPIRWTAPEAISYRKFTSASDVWSFGIVMWEVMTYGERPYWELSNHEVMKAINDGFRLPTPMDCPSAIYQLMMQCWQQERARRPKFADIVSILDKLIRAPDSLKTLADFDPRVSIRLPSTSGSEGVPFRTVSEWLESIKMQQYTEHFMAAGYTAIEKVVQMTNDDIKRIGVRLPGHQKRIAYSLLGLKDQVNTVGIPI
notes: also called EphA2 WT; EphA2-mTurquoise
stoichiometry N: 2
